Data reported in the supplement of paper PMC12217912.
The other results are listed elsewhere or left out. The full chains were built here from the parent and the listed change. Values near 0.05 are background.

B1: TEV protease; numbered along this chain (parent)
chain: MGESLFKGPRDYNPISSSICHLTNESDGHTTSLYGIGFGPFIITNKHLFRRNNGTLVVQSLHGVFKVKDTTTLQQHLVDGRDMIIIRMPKDFPPFPQKLKFREPQREERICLVTTNFQTKSMSSMVSDTSCTFPSGDGIFWKHWIQTKDGQCGSPLVSTRDGFIVGIHSASNFTNTNNYFTSVPKNFMELLTNQEAQQWVSGWRLNADSVLWGGHKVFMVKPEEPFQPVKEATQL

Variants of: B1
Experiment: raw area under fraction-flipped curve 0-4 h after induction (AUC4h, not background-subtracted), DNA-recorder readout of cleavage of the substrate (dimensionless); higher = more cleavage of the substrate by the protease variant
Settings: temperature: 34 °C; time window: 0-4 h after rhamnose induction
Procedure: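 In vivo DNA recorder in E. coli TOP10(DE3) ΔrhaA at 34 °C. Each TEVp single-site mutant (parent TEVp 0) is paired with a single-site variant of the 7-mer TEVs (canonical ENLYFQ|S). The substrate sits between flexible linkers in a Bxb1-sfGFP-TEVs-SsrA fusion, so cleavage stabilises Bxb1 and speeds flipping of a recombination array, read by NGS. The value is the raw area under the fraction-flipped curve over 0-4 h after rhamnose induction (AUC4h), with ≥20 reads per time point. It is not background-subtracted; inactive controls average about 0.047.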
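Also: Bxb1 expression induced with 0.2% (w/v) L-rhamnose at OD600 near 0.5, cultures sampled hourly, flipped fraction per protease–substrate barcode pair counted by paired-end Illumina sequencing.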

Variant: MGESLFKGPRDYNPISSSICHLTNESDGHTTSLYGIGFGPFIITNKHLFRRNNGTLVVQSLHGVFKVKDTTTLQQHLVDGRDMIIIRMPKDFPPFPQKLKFREPQREERICLVTTNFQTKSMSSMVSDTSCTFPSGDGIFWKHWIQTKDGQCGSPLVSTRDGFIVGIHSASNFTNTNNYFTSVPKNFMELLTNAEAQQWVSGWRLNADSVLWGGHKVFMVKPEEPFQPVKEATQL [Q194A]
- area with substrate ENLYFAS: 0.0506
- area with substrate ENLYFCS: 0.0516
- area with substrate ENLYFFS: 0.0528
- area with substrate ENLYFHS: 0.0527
- area with substrate ENLYFIS: 0.0626
- area with substrate ENLYFKS: 0.0491
- area with substrate ENLYFMS: 0.0749
- area with substrate ENLYFNS: 0.0665
- area with substrate ENLYFPS: 0.0678
- area with substrate ENLYFRS: 0.055
- area with substrate ENLYFTS: 0.0596

Variant: MGESLFKGPRDYNPISSSICHLTNESDGHTTSLYGIGFGPFIITNKHLFRRNNGTLVVQSLHGVFKVKDTTTLQQHLVDGRDMIIIRMPKDFPPFPQKLKFREPQREERICLVTTNFQTKSMSSMVSDTSCTFPSGDGIFWKHWIQTKDGQCGSPLVSTRDGFIVGIHSASNFTNTNNYFTSVPKNFMELLTNQTAQQWVSGWRLNADSVLWGGHKVFMVKPEEPFQPVKEATQL [E195T]
- area with substrate ENLYFAS: 0.0521
- area with substrate ENLYFDS: 0.0647
- area with substrate ENLYFES: 0.0527
- area with substrate ENLYFFS: 0.0639
- area with substrate ENLYFIS: 0.0438
- area with substrate ENLYFPS: 0.0717
- area with substrate ENLYFSS: 0.0493
- area with substrate ENLYFTS: 0.0525

Variant: MGESLFKGPRDYNPISSSICHLTNESDGHTTSLYGIGFGPFIITNKHLFRRNNGTLVVQSLHGVFKVKDTTTLQQHLVDGRDMIIIRMPKDFPPFPQKLKFREPQREERICLVTTNFQTKSMSSMVSDTSCTFPSGDGIFWKHWIQTKDGQCGSPLVSTRDGFIVGIHSASNFTNTNNYFTSVPKNFMELLTNQEARQWVSGWRLNADSVLWGGHKVFMVKPEEPFQPVKEATQL [Q197R]
- area with substrate ENLYFAS: 0.0688
- area with substrate ENLYFCS: 0.0559
- area with substrate ENLYFES: 0.0727
- area with substrate ENLYFGS: 0.0701
- area with substrate ENLYFIS: 0.067
- area with substrate ENLYFKS: 0.0571
- area with substrate ENLYFTS: 0.0561
- area with substrate ENLYFVS: 0.0439

Variant: MGESLFKGPRDYNPISSSICHLTNESDGHTTSLYGIGFGPFIITNKHLFRRNNGTLVVQSLHGVFKVKDTTTLQQHLVDGRDMIIIRMPKDFPPFPQKLKFREPQREERICLVTTNFQTKSMSSMVSDTSCTFPSGDGIFWKHWIQTKDGQCGSPLVSTRDGFIVGIHSASNFTNTNNYFTSVPKNFMELLTNQEAQSWVSGWRLNADSVLWGGHKVFMVKPEEPFQPVKEATQL [Q198S]
- area with substrate ENLYFAS: 0.0341
- area with substrate ENLYFFS: 0.0609
- area with substrate ENLYFGS: 0.0543
- area with substrate ENLYFHS: 0.084
- area with substrate ENLYFIS: 0.0552
- area with substrate ENLYFKS: 0.0433
- area with substrate ENLYFLS: 0.0746
- area with substrate ENLYFMS: 0.051
- area with substrate ENLYFNS: 0.0518
- area with substrate ENLYFPS: 0.056
- area with substrate ENLYFRS: 0.0598
- area with substrate ENLYFTS: 0.0665
- area with substrate ENLYFVS: 0.0523
- area with substrate ENLYFWS: 0.0521
- area with substrate ENLYFYS: 0.0603

Variant: MGESLFKGPRDYNPISSSICHLTNESDGHTTSLYGIGFGPFIITNKHLFRRNNGTLVVQSLHGVFKVKDTTTLQQHLVDGRDMIIIRMPKDFPPFPQKLKFREPQREERICLVTTNFQTKSMSSMVSDTSCTFPSGDGIFWKHWIQTKDGQCGSPLVSTRDGFIVGIHSASNFTNTNNYFTSVPKNFMELLTNQEAQQSVSGWRLNADSVLWGGHKVFMVKPEEPFQPVKEATQL [W199S]
- area with substrate ENLYFAS: 0.0488
- area with substrate ENLYFCS: 0.0571
- area with substrate ENLYFES: 0.0624
- area with substrate ENLYFHS: 0.0567
- area with substrate ENLYFIS: 0.0598
- area with substrate ENLYFLS: 0.0702
- area with substrate ENLYFPS: 0.0546
- area with substrate ENLYFRS: 0.0676
- area with substrate ENLYFSS: 0.0595
- area with substrate ENLYFVS: 0.0658
- area with substrate ENLYFYS: 0.0523

Variant: MGESLFKGPRDYNPISSSICHLTNESDGHTTSLYGIGFGPFIITNKHLFRRNNGTLVVQSLHGVFKVKDTTTLQQHLVDGRDMIIIRMPKDFPPFPQKLKFREPQREERICLVTTNFQTKSMSSMVSDTSCTFPSGDGIFWKHWIQTKDGQCGSPLVSTRDGFIVGIHSASNFTNTNNYFTSVPKNFMELLTNQEAQQYVSGWRLNADSVLWGGHKVFMVKPEEPFQPVKEATQL [W199Y]
- area with substrate ENLYFAS: 0.0628
- area with substrate ENLYFCS: 0.0444
- area with substrate ENLYFFS: 0.0573
- area with substrate ENLYFIS: 0.0511
- area with substrate ENLYFWS: 0.056

Variant: MGESLFKGPRDYNPISSSICHLTNESDGHTTSLYGIGFGPFIITNKHLFRRNNGTLVVQSLHGVFKVKDTTTLQQHLVDGRDMIIIRMPKDFPPFPQKLKFREPQREERICLVTTNFQTKSMSSMVSDTSCTFPSGDGIFWKHWIQTKDGQCGSPLVSTRDGFIVGIHSASNFTNTNNYFTSVPKNFMELLTNQEAQQWVCGWRLNADSVLWGGHKVFMVKPEEPFQPVKEATQL [S201C]
- area with substrate ENLYFAS: 0.0612
- area with substrate ENLYFCS: 0.0658
- area with substrate ENLYFDS: 0.0363
- area with substrate ENLYFFS: 0.0577
- area with substrate ENLYFGS: 0.0618
- area with substrate ENLYFIS: 0.0635
- area with substrate ENLYFKS: 0.065
- area with substrate ENLYFMS: 0.0455
- area with substrate ENLYFNS: 0.0722
- area with substrate ENLYFSS: 0.0598
- area with substrate ENLYFVS: 0.0629
- area with substrate ENLYFWS: 0.0265
- area with substrate ENLYFYS: 0.0544

Variant: MGESLFKGPRDYNPISSSICHLTNESDGHTTSLYGIGFGPFIITNKHLFRRNNGTLVVQSLHGVFKVKDTTTLQQHLVDGRDMIIIRMPKDFPPFPQKLKFREPQREERICLVTTNFQTKSMSSMVSDTSCTFPSGDGIFWKHWIQTKDGQCGSPLVSTRDGFIVGIHSASNFTNTNNYFTSVPKNFMELLTNQEAQQWVEGWRLNADSVLWGGHKVFMVKPEEPFQPVKEATQL [S201E]
- area with substrate ENLYFAS: 0.0523
- area with substrate ENLYFCS: 0.056
- area with substrate ENLYFGS: 0.0628
- area with substrate ENLYFIS: 0.0495
- area with substrate ENLYFMS: 0.0683
- area with substrate ENLYFRS: 0.058
- area with substrate ENLYFSS: 0.0574
- area with substrate ENLYFWS: 0.0592

Variant: MGESLFKGPRDYNPISSSICHLTNESDGHTTSLYGIGFGPFIITNKHLFRRNNGTLVVQSLHGVFKVKDTTTLQQHLVDGRDMIIIRMPKDFPPFPQKLKFREPQREERICLVTTNFQTKSMSSMVSDTSCTFPSGDGIFWKHWIQTKDGQCGSPLVSTRDGFIVGIHSASNFTNTNNYFTSVPKNFMELLTNQEAQQWVNGWRLNADSVLWGGHKVFMVKPEEPFQPVKEATQL [S201N]
- area with substrate ENLYFAS: 0.0736
- area with substrate ENLYFES: 0.0681
- area with substrate ENLYFFS: 0.0739
- area with substrate ENLYFHS: 0.0574
- area with substrate ENLYFIS: 0.0628
- area with substrate ENLYFKS: 0.071
- area with substrate ENLYFLS: 0.055
- area with substrate ENLYFMS: 0.034
- area with substrate ENLYFNS: 0.0477
- area with substrate ENLYFPS: 0.0583
- area with substrate ENLYFRS: 0.0606
- area with substrate ENLYFSS: 0.0532
- area with substrate ENLYFTS: 0.0575
- area with substrate ENLYFVS: 0.0456
- area with substrate ENLYFWS: 0.0627
- area with substrate ENLYFYS: 0.0721
